Results on 25 compounds are retold here after article PMC4336329 (PLoS ONE, 2015).

Out of some 310,000 compounds screened, about 14,000 (4.5%) showed an effect of 50% or more. Effects have a minus sign here. Some of the results follow.
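Note: peak tail current of the secondary pulse compared with the same well before compound.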

Chain of human ether-à-go-go-related gene (hERG) potassium channel (Q12809 whole entry, looked up): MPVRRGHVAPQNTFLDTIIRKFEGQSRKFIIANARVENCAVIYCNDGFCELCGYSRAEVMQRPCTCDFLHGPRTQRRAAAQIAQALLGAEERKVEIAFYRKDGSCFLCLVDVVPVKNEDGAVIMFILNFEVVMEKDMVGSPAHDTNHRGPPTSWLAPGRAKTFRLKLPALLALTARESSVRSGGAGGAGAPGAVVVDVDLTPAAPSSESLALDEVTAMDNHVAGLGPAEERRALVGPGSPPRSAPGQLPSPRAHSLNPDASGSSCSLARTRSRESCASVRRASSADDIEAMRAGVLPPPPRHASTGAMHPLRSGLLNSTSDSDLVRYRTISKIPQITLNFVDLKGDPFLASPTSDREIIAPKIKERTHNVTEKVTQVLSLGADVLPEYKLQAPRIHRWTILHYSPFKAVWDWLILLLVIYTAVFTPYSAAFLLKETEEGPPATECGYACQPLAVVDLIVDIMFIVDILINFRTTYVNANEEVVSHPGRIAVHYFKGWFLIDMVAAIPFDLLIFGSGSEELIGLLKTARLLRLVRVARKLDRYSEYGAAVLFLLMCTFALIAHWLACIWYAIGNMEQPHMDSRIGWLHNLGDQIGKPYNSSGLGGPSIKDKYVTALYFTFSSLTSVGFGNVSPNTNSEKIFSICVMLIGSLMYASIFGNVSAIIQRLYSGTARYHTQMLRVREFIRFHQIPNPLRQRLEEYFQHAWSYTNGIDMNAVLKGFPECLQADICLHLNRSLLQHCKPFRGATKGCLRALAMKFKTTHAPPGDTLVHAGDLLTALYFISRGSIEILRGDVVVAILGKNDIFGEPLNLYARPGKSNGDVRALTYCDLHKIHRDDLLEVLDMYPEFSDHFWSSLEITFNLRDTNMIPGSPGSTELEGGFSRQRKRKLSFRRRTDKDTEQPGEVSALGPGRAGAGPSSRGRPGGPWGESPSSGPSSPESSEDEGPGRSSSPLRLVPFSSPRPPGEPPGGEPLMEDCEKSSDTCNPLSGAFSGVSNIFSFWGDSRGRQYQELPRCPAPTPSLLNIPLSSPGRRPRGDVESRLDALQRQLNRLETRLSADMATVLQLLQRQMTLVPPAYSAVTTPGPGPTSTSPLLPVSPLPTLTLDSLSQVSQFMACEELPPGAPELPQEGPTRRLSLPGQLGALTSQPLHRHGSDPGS

This assay has as its target human ether-à-go-go-related gene (hERG) potassium channel (human, UniProt Q12809). Nature of the assay: primary screen, population patch clamp on CHO cells stably expressing hERG.
Consider `Cc1ccc(N2C(=O)c3oc4ccccc4c(=O)c3C2c2cccc(O)c2)nc1` (stereo not shown), for which the “hERG current change (%, negative = inhibition) at 10uM” value was found to be 5.45%.
Under `C[C@@H]1NC(=O)OC1c1ccco1` (stereo partly shown) stands 3.2%.
The figure for `Cc1ccccc1-n1c(SCC(=O)c2c(N)n(C3CC3)c(=O)[nH]c2=O)nnc1N1CCOCC1` is -13.2%; for `CCOc1ccccc1OCC(=O)NCCc1ccc(S(N)(=O)=O)cc1` it is 10.9%; for `Cc1cccc(-c2nnc(SCC#N)n2-c2ccccc2)c1` it is -54.7%.
The figure for `CCCCCc1nnc(NC(=O)c2ccc(N3CCCC3=O)cc2)s1` is 4.25%.
Regarding `O=C(NNC(=O)c1ccccc1Cl)c1ccccc1Cl`, the “hERG current change (%, negative = inhibition) at 10uM” value is recorded as 4.11%.
On to `CS(=O)(=O)N(CC(=O)N1CCC(C(N)=O)CC1)Cc1ccc(Cl)c(Cl)c1`, for which the “hERG current change (%, negative = inhibition) at 10uM” value was -13.7%.
The figure for `Cc1ccsc1/C=N/NC(=O)c1ccc(Cn2cc(Br)cn2)o1` is -4.25%.
The figure for `Cc1ccccc1OCCCCCCN1CCNCC1.O=C(O)C(=O)O` is -1.56%.
Take `COc1ccc(C(=O)N2CCC(CCC(=O)Nc3cccc(C)c3)CC2)cc1`: the “hERG current change (%, negative = inhibition) at 10uM” value is reported as -68.3%.
Under `O=C(COC(=O)c1cccc(Oc2ccccc2)c1)NCc1ccco1` stands 3.19%.
Under `O=C(CCc1ccccc1)NNC(=O)C12CC3CC(CC(C3)C1)C2` stands -17.8%.
Turning to `Cc1csc2ncnc(NNC(=O)c3ccc(Cl)cc3)c12`, the “hERG current change (%, negative = inhibition) at 10uM” value amounted to 9.22%.
The figure for `CSc1ccc(S(=O)(=O)NCC(=O)OCC(=O)NCCc2ccccc2)cc1[N+](=O)[O-]` is 9.18%.
The figure for `CC1CCCCC1NC(=O)COC(=O)c1ccc2ncsc2c1` (stereo not shown) is 12.1%; for `Cc1c(C(=O)OCC(=O)NCc2ccc3c(c2)OCO3)cccc1[N+](=O)[O-]` it is 0.534%.
Under `CCc1ccc(NC(=O)CCCN2C(=S)NC(C)(C)CC2C)cc1` (stereo not shown) stands -5.07%.
Regarding `Oc1c(C=Nc2ccccc2Cl)[nH]c2ccccc12`, the “hERG current change (%, negative = inhibition) at 10uM” value is on record as 9.95%.
The figure for `CC(NC(=O)C(C)(C)C)c1nc2ccccc2n1C` (stereo not shown) is 22%; for `CC(C)CN(C(=O)COC(=O)CCCc1nc2ccccc2s1)c1c(N)n(Cc2ccccc2)c(=O)[nH]c1=O` it is -10.5%.
The figure for `CCC12CN3CCN(CC(C3)/C1=N/NC(N)=O)C2` is 21%.
The figure for `Cn1ncc(Cl)c1C(=O)NC1C2CC3CC(C2)CC1C3` (stereo not shown) is 8.77%; for `CSc1ccccc1C(=O)OCC(=O)NC1CCS(=O)(=O)C1` (stereo not shown) it is 2.97%; for `CCN(CC(=O)Nc1ccc(OC)cc1)C(=O)Cc1cccs1` it is 6.49%.
